Over roughly 18,000 sequences, “TetR repression strength (sort-seq, GFP reporter)” has its median near 0.23; the highest 2% begin near 0.68. The list shows a part of the results.
target: TetR (class B, Tn10) (UniProt P04483); experiment: TetR repression strength (sort-seq, GFP reporter) (relative to tetO2 = 1); higher = stronger repression; details: E. coli
Procedure, shortened: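 Escherichia coli SIG10-MAX cells carried a low-copy plasmid library in which eight operator positions were randomized between a constitutive promoter and sfGFP, and TetR was expressed constitutively. After 5 h of growth at 37 °C in LB with 50 µg/mL chloramphenicol, 10^6 cells were FACS-sorted into 13 fluorescence bins, and each bin was Illumina-sequenced. Repression strength was the top bin index plus one minus the read-weighted mean bin, divided by the value for the unaltered operator. Across three independent transformations, only library members with ≥30 reads in every replicate and a CV ≤0.5 were averaged.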

Chain of UniProt P04483 (P04483 whole entry): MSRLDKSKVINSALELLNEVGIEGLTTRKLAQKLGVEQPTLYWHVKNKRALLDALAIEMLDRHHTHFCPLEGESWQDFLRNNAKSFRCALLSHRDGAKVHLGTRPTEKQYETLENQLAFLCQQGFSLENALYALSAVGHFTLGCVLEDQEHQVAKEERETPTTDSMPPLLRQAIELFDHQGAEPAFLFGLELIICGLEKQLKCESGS

Compared with TCCCGCGAAGTCATCGAGA, TCCCTTCGAGTTCAGGAGA is lower in TetR repression strength: 0.202 for the first, 0.198 for the second.

Going from TCCCCCTGAGTTTCGGAGA to TCCCCCGAAGTGGGGGAGA, the TetR repression strength rises from 0.199 to 0.216.

Going from TCCCAACGAGTGCAAGAGA to TCCCTGGAAGTCTTTGAGA, the TetR repression strength rises from 0.332 to 0.393.

Compared with TCCCGCAGAGTGCTCGAGA, TCCCTCTAAGTGTCCGAGA is higher in TetR repression strength: 0.0447 for the first, 0.512 for the second.

Going from TCCCCTGGAGTCGTAGAGA to TCCCAGCGAGTTGGGGAGA, the TetR repression strength falls from 0.288 to 0.273.

Going from TCCCGGCAAGTGCTGGAGA to TCCCGCCTAGTGAGGGAGA, the TetR repression strength rises from 0.0912 to 0.193.

First: TCCCAGCTAGTGCGCGAGA
Second: TCCCACTCAGTGCGGGAGA
The TetR repression strength of the first is higher: 0.414 for the first, 0.213 for the second.

Compared with TCCCGGCTAGTCAATGAGA, TCCCTATCAGTGCTGGAGA is higher in TetR repression strength: 0.355 for the first, 0.86 for the second.

Going from TCCCGCGGAGTTTTAGAGA to TCCCTTCAAGTTTCAGAGA, the TetR repression strength rises from 0.203 to 0.837.

Going from TCCCGTTTAGTAACGGAGA to TCCCCGAGAGTATTAGAGA, the TetR repression strength rises from 0.149 to 0.176.

Compared with TCCCCGTCAGTAACTGAGA, TCCCGGTGAGTGGTCGAGA is lower in TetR repression strength: 0.281 for the first, 0.181 for the second.

Going from TCCCAGGAAGTGCACGAGA to TCCCTGGCAGTTGCGGAGA, the TetR repression strength rises from 0.275 to 0.282.

First: TCCCTGGGAGTTTACGAGA
Second: TCCCCACAAGTCACTGAGA
The TetR repression strength of the first is lower: 0.173 for the first, 0.311 for the second.

First: TCCCTCTAAGTCGTCGAGA
Second: TCCCAGAGAGTCCCCGAGA
The TetR repression strength of the first is higher: 0.207 for the first, 0 for the second.

First: TCCCCAATAGTCCTAGAGA
Second: TCCCGTGAAGTCGATGAGA
The TetR repression strength of the first is higher: 0.285 for the first, 0.187 for the second.

First: TCCCAGACAGTTCAAGAGA
Second: TCCCGTCGAGTGTCAGAGA
The TetR repression strength of the first is higher: 0.365 for the first, 0.263 for the second.

Going from TCCCCTGCAGTGCAAGAGA to TCCCTCGAAGTGGAGGAGA, the TetR repression strength falls from 0.618 to 0.0933.

First: TCCCGACCAGTCATTGAGA
Second: TCCCGCGCAGTAACGGAGA
The TetR repression strength of the first is higher: 0.292 for the first, 0.242 for the second.

Compared with TCCCCTTGAGTCCTGGAGA, TCCCTTCCAGTTTACGAGA is lower in TetR repression strength: 0.463 for the first, 0.41 for the second.

Going from TCCCCGCAAGTTATCGAGA to TCCCTTCGAGTGGCAGAGA, the TetR repression strength falls from 0.36 to 0.0926.

Going from TCCCTCAGAGTTGCTGAGA to TCCCGAACAGTCCTCGAGA, the TetR repression strength falls from 0.245 to 0.197.

Going from TCCCGAGCAGTATTTGAGA to TCCCTTACAGTGTGTGAGA, the TetR repression strength falls from 0.374 to 0.306.

Going from TCCCGAGAAGTGCAGGAGA to TCCCACTAAGTGCCGGAGA, the TetR repression strength rises from 0.173 to 0.187.

First: TCCCGAGAAGTCCATGAGA
Second: TCCCGCCAAGTGCGGGAGA
The TetR repression strength of the first is lower: 0.207 for the first, 0.218 for the second.

Compared with TCCCGGGAAGTAAGCGAGA, TCCCCGGAAGTTCTAGAGA is lower in TetR repression strength: 0.556 for the first, 0.315 for the second.

Compared with TCCCTTGCAGTGCCAGAGA, TCCCAATGAGTCGGCGAGA is lower in TetR repression strength: 0.677 for the first, 0.222 for the second.

Going from TCCCTCCCAGTGCGTGAGA to TCCCGGTAAGTGTGCGAGA, the TetR repression strength falls from 0.168 to 0.136.

First: TCCCCGTAAGTCCGTGAGA
Second: TCCCTGAGAGTATGTGAGA
The TetR repression strength of the first is higher: 0.522 for the first, 0.282 for the second.

Going from TCCCGTCAAGTCAATGAGA to TCCCCGGTAGTCGCTGAGA, the TetR repression strength falls from 0.382 to 0.136.

Compared with TCCCTAGTAGTGGTTGAGA, TCCCAGTGAGTGTCCGAGA is lower in TetR repression strength: 0.285 for the first, 0.257 for the second.

First: TCCCTGTTAGTCGGAGAGA
Second: TCCCATTTAGTCCAAGAGA
The TetR repression strength of the first is lower: 0.109 for the first, 0.28 for the second.

Compared with TCCCGTTAAGTTGGGGAGA, TCCCCGTCAGTAGGGGAGA is lower in TetR repression strength: 0.173 for the first, 0.146 for the second.

First: TCCCCTGTAGTATGAGAGA
Second: TCCCTGCAAGTTTGAGAGA
The TetR repression strength of the first is higher: 0.383 for the first, 0.161 for the second.

First: TCCCTGGTAGTGACCGAGA
Second: TCCCCTTGAGTTACCGAGA
The TetR repression strength of the first is lower: 0.116 for the first, 0.307 for the second.

Compared with TCCCAATTAGTGCGAGAGA, TCCCTACGAGTGAGTGAGA is lower in TetR repression strength: 0.333 for the first, 0.203 for the second.

Going from TCCCAGACAGTGGGGGAGA to TCCCACGTAGTGATTGAGA, the TetR repression strength falls from 0.185 to 0.174.

First: TCCCCTGCAGTTGAGGAGA
Second: TCCCGTGTAGTTGCAGAGA
The TetR repression strength of the first is lower: 0.248 for the first, 0.976 for the second.

First: TCCCAGGTAGTGCAAGAGA
Second: TCCCGCTTAGTTAATGAGA
The TetR repression strength of the first is lower: 0.363 for the first, 0.539 for the second.

First: TCCCTCCAAGTTGCCGAGA
Second: TCCCCATTAGTGCTTGAGA
The TetR repression strength of the first is higher: 0.341 for the first, 0.282 for the second.

Going from TCCCCACCAGTATATGAGA to TCCCATAGAGTTCTTGAGA, the TetR repression strength falls from 0.356 to 0.139.

First: TCCCGGTTAGTTATGGAGA
Second: TCCCCGCGAGTTGTTGAGA
The TetR repression strength of the first is lower: 0.282 for the first, 0.333 for the second.

First: TCCCATTAAGTAACGGAGA
Second: TCCCTGTTAGTAACGGAGA
The TetR repression strength of the first is lower: 0.00534 for the first, 0.112 for the second.

First: TCCCTTTGAGTAAGCGAGA
Second: TCCCCGACAGTTTGTGAGA
The TetR repression strength of the first is lower: 0.0415 for the first, 0.191 for the second.

Compared with TCCCGTCCAGTAGAAGAGA, TCCCAGGAAGTCAGGGAGA is higher in TetR repression strength: 0.126 for the first, 0.235 for the second.

First: TCCCAAAGAGTTAGTGAGA
Second: TCCCTGGAAGTGGAGGAGA
The TetR repression strength of the first is higher: 0.218 for the first, 0.125 for the second.

Compared with TCCCTCTGAGTTGTGGAGA, TCCCTACCAGTATGAGAGA is higher in TetR repression strength: 0.401 for the first, 0.405 for the second.

Going from TCCCGTGAAGTTGATGAGA to TCCCTGGAAGTGCCCGAGA, the TetR repression strength rises from 0.0259 to 0.307.

Going from TCCCTTGGAGTTGCAGAGA to TCCCATCTAGTGGCGGAGA, the TetR repression strength rises from 0.266 to 0.679.

Compared with TCCCTTGAAGTTGATGAGA, TCCCACTGAGTGGAGGAGA is lower in TetR repression strength: 0.438 for the first, 0.129 for the second.

First: TCCCAATAAGTGAGTGAGA
Second: TCCCACGGAGTGTGCGAGA
The TetR repression strength of the first is higher: 0.382 for the first, 0.0291 for the second.

Going from TCCCCAGTAGTATTGGAGA to TCCCTTGTAGTCGAAGAGA, the TetR repression strength falls from 0.377 to 0.314.

Source: a collection of fitness landscapes (doi:10.1038/s41467-024-54723-y)
